Out of some 52,000 compounds screened, about 1,700 (3.3%) were called active. No stated cut-off is given here; in the data, active means survival mostly below about 52% (no sharp cut-off); inactive means mostly above about 56%. This is one part of the list.

The test system of this assay is Wild type. The experiment in a line: growth inhibition of S. aureus wild type versus tarO mutant, primary screen, teichoic acid synthesis inhibitors, RN4220, OD600 (AID 463173). The note with it: S. aureus RN4220 wild type/DeltatarO growth, OD600, 18 h, hits give low values, screened at 18.75 µg/mL (by protocol).
As for `CCCCCc1ccc(-c2ccc(C(=O)Oc3ccc(C(=O)OC)cc3)cc2)nc1`, the survival was inactive: 74%.
For `COc1ccccc1Nc1c2c(nc3ccc(NC(=O)/C=C/c4cc(OC)c(OC)c(OC)c4)cc13)CCCC2` the value was inactive: 91%; for `CC(C)c1ccc(NC(=O)C2Cc3ccccc3N2C(=O)c2ccccc2)cc1` (configuration not stated), inactive: 97%.
Next, `COc1ccc(CNc2nc(-c3ccc(Cl)cc3)nn2C(=O)c2ccccc2)cc1`: inactive: 37%; `CC(C)CCn1nnnc1CN1CCN(C(=O)c2ccco2)CC1`: inactive: 107%.
Next, `C/C(=N\NC(=O)c1ccc(N)cc1)C(C)(C)C`: inactive: 109%; `O=C(NCCN1CCCC1)c1ccc(Cl)cc1`: inactive: 97%.
Turning to `COc1ccccc1CNC(=O)c1ccc(CSc2nc3ccncc3n2Cc2ccccc2C)cc1`, the survival is inactive: 83%.
For `Cc1ccc(S(=O)(=O)C2(C(=O)Nc3ccc(C(C)C)cc3)CC2)cc1` the value was inactive: 64%; for `Cc1ccc(-n2ncc(C(=O)N3CCN(c4ncccn4)CC3)c2C2CCN(C(=O)OC(C)(C)C)CC2)cc1`, inactive: 71%; for `Cc1cc(C)cc(N2C(=O)CS(=O)(=O)C23C(=O)N(C)c2ccccc23)c1` (configuration not stated), inactive: 81%.
For `Cc1nc(-c2ccc(S(=O)(=O)N(C)Cc3ccccc3)cc2)co1` the value was inactive: 74%; for `CCn1c2ccccc2c2nnc(N3CCN(c4ccc(OC)cc4)CC3)nc21`, inactive: 85%; for `COc1ccc(-c2cc(C(F)(F)F)nc(SCCC(=O)Nc3ccc(O)cc3)n2)cc1`, inactive: 76%.
For `CCOC(=O)Cn1nc(C)c(NC(=O)COc2ccc(C)c(C)c2)c1C` the value was inactive: 76%; for `CCN(CC)C(=O)CSc1cn(CC(=O)N2CCCCCC2)c2ccccc12`, inactive: 99%; for `Cc1ccc(NC(=O)C2CCN(c3nc4ccccc4nc3C(F)(F)F)CC2)cc1C`, inactive: 81%.
As for `CCCN(CCC)S(=O)(=O)c1ccc(N2CCCCS2(=O)=O)cc1`, the survival is inactive: 72%.
Next, `CCOc1ccc(-n2cc(-c3ccccc3)c3c(NCc4ccc(F)cc4)ncnc32)cc1`: inactive: 66%; `CCC1(c2ccccc2)NC(=O)NC1=O` (configuration not stated): inactive: 99%.
Next, `Cc1ccc(C)c(NC(=O)CSc2ncc3c(n2)-c2ccccc2N(Cc2ccccc2C)S3(=O)=O)c1`: inactive: 76%; `COc1ccc(/C=C/c2nc(C#N)c(N3CCCCCC3)o2)cc1OC`: inactive: 73%; `Nc1ccc(Cc2ccccc2)cc1`: inactive: 112%.
Next, `O=C(Cn1cc(S(=O)(=O)c2ccc(Cl)cc2)c(=O)c2ccccc21)Nc1ccc2c(c1)OCO2`: inactive: 66%; `O=C1OC(C(=O)O)Cc2ccccc21` (configuration not stated): inactive: 102%.
With `Fc1ccc([C@@H]2Nc3ccccc3[C@@H]3C=CC[C@@H]32)cc1`, the survival is inactive: 88%.
For `Cc1ccc(C)c(Nc2ncnc3c2cnn3-c2ccc(F)cc2)c1` the value was active: -3%.
Next, `COc1ccc(C)cc1NS(=O)(=O)c1ccc(-c2cnc(C3CC3)o2)cc1`: inactive: 68%; `COc1ccc(CNS(=O)(=O)c2ccc3c(c2)NC(=O)C(C)C(=O)N3)cc1` (configuration not stated): inactive: 93%.
Next, `Cc1nnc(N2CCC(C(=O)N3CCCCC3)CC2)c2nn(-c3ccccc3)c(C)c12`: inactive: 140%.
Take `Cc1ccc(C)c(S(=O)(=O)Nc2ccc3c(c2)CCCN3C(=O)c2cccs2)c1`: the survival is inactive: 60%.
Next, `O=C(N1CCOCC1)N1CCN(S(=O)(=O)c2ccccc2)C1`: inactive: 87%; `COc1cc(NC(=O)Cn2c(=O)n(Cc3ccccc3Cl)c(=O)c3cc(OC)c(OC)cc32)cc(OC)c1`: inactive: 71%.
As to `COc1ccc(CNc2n[nH]c(-c3ccco3)n2)cc1OC`, the survival was inactive: 85%.
For `CCc1ccc(Nc2ncnc3sc4c(c23)CCCC4)cc1` the value was inactive: 68%; for `O=C(NCCc1ccccc1)c1cc(-c2cccc(Cl)c2)on1`, inactive: 87%; for `COc1ccc(CCN2C(=O)N(c3ccc(F)cc3)C(=O)C2CC(=O)Nc2ccccc2)cc1OC` (configuration not stated), inactive: 73%.
Take `CCCN(C(=O)c1cc2c(=O)n(CC)c3ccccc3c2s1)c1ccccc1F`: the survival was inactive: 74%.
For `CCCc1c(C(=O)OCC)nnc2c(-c3ccccc3)c(C)nn12` the value was inactive: 65%.
For `COc1cc(NC(=O)c2cc3nc(-c4ccc(C)cc4)cc(C(F)(F)F)n3n2)cc(OC)c1OC` the value was inactive: 53%; for `COc1ccc(C2c3c(n(C)c4ccccc34)C(=O)N2CC(=O)Nc2ccccc2Cl)cc1` (configuration not stated), inactive: 135%; for `O=C(c1ccc(Nc2nc3ccccc3n3nnnc23)cc1)N1CCN(c2ccc(F)cc2)CC1`, inactive: 76%.
For the compound `CCc1ccc(NC(=O)c2cc(S(=O)(=O)N3CCCCC3)c[nH]2)cc1`, the survival was inactive: 121%.
For `COc1ccc(CCNC(=O)c2cnc3sc(N4CCOCC4)nn3c2=O)cc1OC` the value was inactive: 84%; for `COc1ccc(OCc2ccc(-c3nc(C#N)c(N4CCC(C(N)=O)CC4)o3)o2)cc1`, inactive: 109%; for `Cc1ccc(CNC(=O)c2nnn(Cc3ccc(F)cc3)c2N)cc1`, inactive: 87%.
Next, `O=S(=O)(Nc1ccc(F)cc1F)c1ccc(Br)s1`: inactive: 50%; `COc1ccc(CCNC(=O)c2c[nH]n3c(=O)c(Cc4ccccc4Cl)c(C)nc23)cc1OC`: active: 0%; `O=C(Nc1cc(-c2nc3cc(Cl)ccc3o2)ccc1Cl)c1cccc2ccccc12`: inactive: 69%.
As to `CCn1c2c(c(=O)n3ncc(C(=O)Nc4ccc(OC(F)(F)F)cc4)c13)CN(Cc1ccc(OC)cc1)CC2`, the survival is inactive: 83%.
For `Cc1ccc2c(c1)cc1c(=O)n(CC(=O)NC(C)CCc3ccccc3)nc(C)n12` (configuration not stated) the value was inactive: 87%; for `CC1CCN(c2ccc(-c3cccc(NS(=O)(=O)c4cccs4)c3)nn2)CC1`, inactive: 67%; for `O=C(NCc1cccs1)c1ccc(CSc2nc3cccnc3n2Cc2ccc(F)cc2)cc1`, inactive: 79%.
With `COc1ccc(-c2nn(-c3ccc(F)cc3)c3c2cnc2cc4c(cc23)OCO4)cc1`, the survival is inactive: 71%.
Next, `CCc1ccccc1NC(=O)CSc1nc2n[nH]c(C)c2c(=N)n1-c1cccc(C)c1`: inactive: 78%.
For `COc1ccccc1CNc1ccc(-c2nc(-c3ccccc3C)no2)cc1[N+](=O)[O-]` the value was inactive: 82%; for `Cn1c2c(c(=O)n(C)c1=O)C(c1ccccc1[N+](=O)[O-])CC(=O)N2` (configuration not stated), inactive: 88%.

(Values after PubChem BioAssay AID463173 (ICCB-Longwood Screening Facility, Harvard Medical School, 2010).)
